# Laboratory results: PubChem BioAssay AID1346428 (National Center for Advancing Translational Sciences (NCATS), 2018)
# Values joined by “and” are separate entries in the source; they are usually repeats but may differ in a detail not shown here. Equal entries are not always repeated. About 1,200 (2.5%) of roughly 48,000 compounds were called active. About 2% were inconclusive and are not listed.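 Rule for the calls: active = activation of at least 60% and not above a set upper limit (about 1 call in 100 departs from these limits); inconclusive = activation of 40% to 60%, or above that upper limit; inactive = activation under 40%.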 The list shows a part of the results.
# Biological target: Probable G-protein coupled receptor 32 (Homo sapiens) (UniProt O75388)
# Assay: qHTS for Agonists of Human Resolvin D1 Receptor DRV1; note: 0% is about no effect
# Settings: CHO-K1 GPR32 beta-arrestin PathHunter luminescence, 90 min; at 76.9 µM; hits give high values; zero percent set by DMSO-only wells
# Method in brief: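 PathHunter beta-arrestin recruitment in CHO-K1 cells stably expressing ProLink-tagged GPR32. Cells were exposed to compound for 90 min at 37 C, then chemiluminescence was read after 1 h detection at ambient temperature; DMSO served as basal control.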
# UniProt O75388, sequence (O75388 whole entry, looked up): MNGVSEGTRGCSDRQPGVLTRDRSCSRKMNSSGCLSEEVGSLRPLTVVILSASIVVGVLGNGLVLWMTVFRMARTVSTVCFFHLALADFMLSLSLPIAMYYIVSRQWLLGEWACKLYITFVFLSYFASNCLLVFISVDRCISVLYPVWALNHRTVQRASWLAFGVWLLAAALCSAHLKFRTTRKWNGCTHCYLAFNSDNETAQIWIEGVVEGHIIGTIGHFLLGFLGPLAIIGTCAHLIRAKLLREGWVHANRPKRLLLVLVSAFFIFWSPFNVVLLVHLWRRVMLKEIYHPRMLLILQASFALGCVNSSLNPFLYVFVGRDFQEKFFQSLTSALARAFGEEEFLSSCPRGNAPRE
row,SMILES,activation
1,COc1ccc(NC(=O)c2oc3ccc(S(=O)(=O)N4CCOCC4)cc3c2C)cc1,inactive: 20.7%
2,COc1ccc(C2c3c(n(C)c4ccccc34)C(=O)N2CC(=O)Nc2cccc(F)c2)cc1 (stereo unspecified),inactive: -25.9%
3,O=C(O)c1ccc(CNCc2ccccc2Cl)s1,inactive: 3.74%
4,CCc1ccc(C(=O)N2CCC(c3nc(-c4ccc(S(=O)(=O)N5CCCC5)cc4)no3)CC2)cc1,inactive: -2.33%
5,COc1ccc(C(=O)Nc2nnc(SCc3cc(=O)n4cccc(C)c4n3)s2)cc1,inactive: -8.32%
6,O=S(=O)(c1ccc(Br)cc1)c1nnn2c1nc(NCc1ccc3c(c1)OCO3)c1sccc12,inactive: -10.3%
7,Cc1cccc(CNC(=O)c2ccc3oc(=O)n(Cc4ccccc4)c3c2)c1,inactive: -6.72%
8,COc1cc(Cl)c(C)cc1NC(=O)Cn1ncc2c1-c1cc(C)ccc1OC2,inactive: 8.48%
9,CCCSc1ncc(Cl)c(C(=O)Nc2c(C(=O)Nc3ccc(OC)cc3)oc3ccccc23)n1,inactive: -9.92%
10,Cc1ccc(CNC(=O)CCCCCn2c(=O)c3sccc3n(CC(=O)Nc3c(C)cc(C)cc3C)c2=O)cc1,inactive: 0.328%
11,CCCOc1ccc(CNC(=O)CCCn2nc(C)c3sc4ccccc4c3c2=O)cc1,inactive: -12.9%
12,O=C(Nc1cc(Cl)ccc1Cl)c1cc2nc(-c3ccc4c(c3)OCO4)cc(C(F)(F)F)n2n1,inactive: -5.21%
13,CC1CCCN(Cc2nc3c(c(=O)n(C)c(=O)n3C)n2Cc2ccc(Cl)cc2)C1 (stereo unspecified),inactive: -1.63%
14,Cc1cc(C)cc(NC(=O)CSc2oc(-c3ccco3)nc2S(=O)(=O)c2ccc(Cl)cc2)c1,inactive: -0.265%
15,CSc1ccc(CNC(=O)C2CCN(c3nc4ccccc4nc3C(F)(F)F)CC2)cc1,inactive: -17.2%
16,COc1ccc(Cl)cc1NC(=O)C1CCN(S(=O)(=O)c2ccc3c(c2)CC(C)N3C(C)=O)CC1 (stereo unspecified),inactive: 18.2%
17,Cn1nc(C(=O)NCc2ccccc2Cl)c2c1-c1ccccc1S(=O)(=O)C2,inactive: -2.75%
18,COc1ccc(Nc2cc(C)c3cc(NC(=O)Cc4ccc(Cl)cc4)ccc3n2)cc1,inactive: 24.5%
19,Cc1ccc(Cl)cc1N1CCN(c2ncnc3c2nc2n3CCCCC2)CC1,inactive: -10.2%
20,CCCCNC(=O)C1CCN(c2nc3ccccc3nc2C(F)(F)F)CC1,inactive: 4.49%
21,COc1ccc(-n2ncc(C(=O)N3CCN(c4cc(C)ccc4C)CC3)c2C2CCN(C(=O)OC(C)(C)C)CC2)cc1,inactive: -2.42%

row,SMILES,activation
1,COc1ccc(CNCc2c(C(=O)O)c(C)n(Cc3ccccc3C)c2C)c(OC)c1,inactive: -21.9%
2,CCN(CC)CCNC(=O)c1cn(CCOC)c(=O)c2c1c1ccccc1n2C,inactive: -11.9%
3,Cc1cc(C)c(S(=O)(=O)N2CCC(N3CCN(Cc4ccccc4)C(=O)C3=O)CC2)c(C)c1,inactive: -8.8%
4,CCN(CC)S(=O)(=O)c1cccc(C(=O)Nc2sc3c(c2C#N)CCC(C)C3)c1 (stereo unspecified),inactive: 15.5%
5,COc1ccc2c(c1)c1c(c(=O)n(-c3ccccc3C)c(=O)n1C)n2C,inactive: 23.1%
6,CCOC(=O)C1=C(C)NC(C)=C(C(=O)OC)C1c1cccc([N+](=O)[O-])c1 (stereo unspecified),inactive: -25.4% and inactive: -27.8%
7,O=C(CSc1cn(CCNC(=O)c2c(F)cccc2F)c2ccccc12)Nc1ccc(F)cc1,inactive: -3.66%
8,Cc1nnc(NC(=O)CSc2nccn2Cc2ccc(Cl)cc2)s1,inactive: -7.23%
9,COc1ccc(C)cc1NC(=O)c1cc2c(=O)n(Cc3cccnc3)ccc2nc1C,inactive: -6.72%
10,Cc1ccc(-c2c(C(=O)N3CCN(c4cc(Cl)ccc4C)CC3)oc(=O)c3ccccc23)cc1,inactive: 11.5%
11,CCc1ccccc1NC(=O)Cc1ccc(NC(=O)N2CCCCc3ccccc32)cc1,inactive: -0.346%
12,Cc1nc2nc(NC(=O)CC(C)C)[nH]n2c(=O)c1Cc1ccccc1,inactive: 9.36%
13,O=C(Nc1ccc(F)c(Cl)c1)N1CCC2(CC1)Oc1ccccc1C(=O)N2Cc1ccccc1F,inactive: -14.4%
14,COc1ccccc1N1CCN(C(CNC(=O)C(=O)NCc2ccc(F)cc2)c2cccnc2)CC1 (stereo unspecified),inactive: 7.73%
15,COc1cccc(N2CCN(C(=O)CCCCCn3c(=O)[nH]c4ccccc4c3=O)CC2)c1,inactive: -17.8%
16,CC1CCn2c(nc3cc(C(=O)NCc4ccc(OC(C)C)cc4)ccc32)C1 (stereo unspecified),inactive: -13.3%
17,CC(C)c1ccc(NC(=O)CSc2nc3ccccc3nc2Cc2ccccc2)cc1,inactive: -6.92%
18,COc1ccccc1CNC(=O)C1CCN(S(=O)(=O)c2ccc3c(c2)CCCN3C(C)=O)CC1,inactive: -1.32%
19,CCc1ccc(CNC(=O)c2cc3c(=O)n(Cc4cccs4)ccc3nc2C)cc1,inactive: -27.9%
20,CCC(C(=O)NC1CCC(C)CC1)n1nc(C)c2sc3ccccc3c2c1=O (stereo unspecified),inactive: -16.7%
21,CCc1nc2nc(C)c(NS(=O)(=O)c3ccc(C)cc3)c(=O)n2[nH]1,inactive: 14.6%

row,SMILES,activation
1,CN(C)CCNC(=O)C(=O)NCC(c1cccnc1)N1CCN(c2ccc(F)cc2)CC1 (stereo unspecified),inactive: -3.94%
2,CCOc1ccccc1NC(=O)Cn1nnc(C(=O)NCc2ccc(F)cc2)c1N,inactive: -9.78%
3,COc1ccc(Cn2ccc3nc(C)c(C(=O)N4CCN(c5ccc(OC)cc5)CC4)cc3c2=O)cc1,inactive: -14.1%
4,Cc1nc2c(OCc3ccccc3)cccn2c1CC#N,inactive: 3.2%
5,Cc1cc(C)cc(NC(=O)Cc2c(C(=O)O)c(C)cn2C)c1,inactive: 0.889%
6,O=C(Cn1cc(SCc2ccccc2F)c2ccccc21)N1CCCCC1,inactive: -9.03%
7,O=C(NCc1ccco1)c1ccc2c(c1)N(Cc1c(F)cccc1Cl)C(=O)c1ccccc1S2,inactive: -10.6%
8,COc1ccc(-c2c(C)nn3c(C(F)(F)F)cc(-c4ccccc4)nc23)cc1,inactive: -21.7%
9,COc1ccc(OC)c(NC(=O)c2cc(C3CC3)nc3c2c(C)nn3-c2ccc(C)cc2)c1,inactive: 1.8%
10,COc1ccc(C(=O)NCc2ccc3c(c2)CCN3C(=O)c2ccc(C)cc2)cc1,inactive: -23%
11,CCCCCCCCCCCCCCCCC(C(=O)O)C(O)(CC(=O)O)C(=O)O (stereo unspecified),inactive: 12.3%
12,Cc1ccc(-n2nc3ccc(NC(=O)COc4ccccc4)cc3n2)cc1Cl,inactive: -13.7%
13,Cc1cccc(-n2c(=O)c3ccccc3n(Cc3ccccc3)c2=O)c1,inactive: -35.4%
14,CCOc1ccc(-n2c(=O)c3c4c(sc3n(CC(=O)NC(C)CC)c2=O)CCCC4)cc1 (stereo unspecified),inactive: 6.24%
15,Cc1ccc(CNC(=O)C2CCN(Cc3nc(-c4cccc(Br)c4)oc3C)CC2)cc1,inactive: -8.93%
16,CC(=O)c1cccc(NC(=O)C2CCN(S(=O)(=O)c3ccc4[nH]c(=O)ccc4c3)CC2)c1,inactive: -14.9%
17,CCOc1ccc(N(CC)C(=O)c2nn(-c3ccc(OC)cc3)c(=O)c3c2c2ccccc2n3C)cc1,inactive: -8.56%
18,O=C(CSc1nc2c([nH]c3ccccc32)c(=O)n1-c1cccc(C(F)(F)F)c1)N1CCc2ccccc21,inactive: -7.62%
19,CCc1cc2c(cc(C(=O)OC)n2Cc2nc(-c3ccc(C)cc3)oc2C)s1,inactive: -18.1%
20,Cc1c(C(=O)N2CCC(C)CC2)c(S(=O)(=O)Nc2cccc(C(F)(F)F)c2)c(C)n1C,inactive: -14.9%
21,COc1ccc(OC)c(CCNC(=O)c2cnn(-c3ccc(C)cc3C)c2C2CCN(C(=O)OC(C)(C)C)CC2)c1,inactive: -24.5%

row,SMILES,activation
1,CCOC(=O)c1c(NC(=O)COc2ccc(C)cc2C(C)(C)C)sc2c1CCC(C)C2 (stereo unspecified),inactive: 7.69%
2,Cc1nn(S(=O)(=O)c2ccc(C(C)(C)C)cc2)c(C)c1S(=O)(=O)N1CCC(C)CC1,inactive: 0.525%
3,Cc1ccc(Cn2c(CNC(=O)Cc3cccc(C)c3)nc3cccnc32)cc1,inactive: -14.4%
4,CC(=O)c1ccc(N2CCN(S(=O)(=O)c3cc(-c4noc(C)n4)ccc3C)CC2)cc1,inactive: 13.6%
5,COc1ccc(CNC(=O)Cn2c(=O)ccc3cc(S(=O)(=O)N4CCCC4)ccc32)cc1,inactive: 11.5%
6,CC(=O)Nc1ccc(NC(=O)C2(c3cccs3)CCOCC2)cc1,inactive: -8.47%
7,COCCN1C(=O)c2oc3ccc(C)cc3c(=O)c2C12C(=O)N(C)c1ccccc12 (stereo unspecified),inactive: -7.97%
8,COC(=O)c1cc2oc3ccccc3c2n1Cc1nc(-c2cccc(C)c2)oc1C,inactive: 0.674%
9,COc1ccc2[nH]cc(CCNC(=O)c3cnn(-c4ccc(C)cc4)c3C3CCN(C(=O)OC(C)(C)C)CC3)c2c1,inactive: -22.6%
10,COc1ccccc1CNC(=O)c1cnc(SC)nc1C,inactive: 23.8%
11,COCC(=O)Nc1cccc(-c2nc3cccnc3s2)c1,inactive: -9.52%
12,CC(C)N(Cc1ccccc1)C(=O)C1CCCN(c2ncnc3onc(-c4ccc(F)cc4)c23)C1 (stereo unspecified),inactive: -8.99%
13,CCOC(=O)c1ccc(N2C(=O)c3[nH]nc(-c4ccc(OCC)cc4)c3C2c2cccs2)cc1 (stereo unspecified),inactive: 7.53%
14,CCOC(=O)c1ccc(NC(=O)CC2Nc3ccccc3NC2=O)cc1 (stereo unspecified),inactive: -29%
15,Cc1cc(-c2ccc(S(=O)(=O)N3CCN(c4ccc(Cl)cc4)CC3)s2)on1,inactive: 18.1%
16,COc1ccc(NC(=O)c2sc3nc4c(c(-c5ccc(OC)cc5)c3c2N)C(=O)CC(C)(C)C4)cc1,inactive: 0.189%
17,COc1ccc(-c2nc3scc(CCNC(=O)c4cccc(Br)c4)n3n2)cc1,active: 71.2%
18,Cc1cc2n(n1)CCC(=O)N2Cc1ccc(C(=O)Nc2ccc(F)cc2F)cc1,inactive: -12.7%
